The chains are these.
B1: Ydj1; a variant is named by its letters at X, in order (parent)
chain: MVKETKFYDILGVPVTATDVEIKKAYRKCALKYHPDKNPSEEAAEKFKEASAAYEILSDPEKRDIYDQFGEDGLSGAGGAGGFPGGGFGFGDDIFSQFFGAGGAQRPRGPQRGKDIKHEISASLEELYKGRTAKLALNKQILCKECEGRGGKKGAVKKCTSCNGQGIKFVTRQMGPMIQRFQTECDVCHGTGDIIDPKDRCKSCNGKKVENERKILEVHVEPGMKDGQRIVFKGEADQAPDVIPGDVVFIVSERPHKSFKRDGDDLVYEAEIDLLTAIAGGEFALEHVSGDWLKVGIVPGEVIAPGMRKVIEGKGMPIPKYGGYGNLIIKFTIKFPENHFTSEENLKKLEEILPPRIVPAIPKKATVDECVLADFDPAKYNRTRASRGGANYDSDEEEQGGEGVQCXXX

The data scatter; read single values as rough.

The variants in the data set derive from B1. Description: enrichment factor, frequency at 37 °C / frequency at 25 °C (thermotolerance selection) (ratio); higher = more growth at 37 °C, higher likelihood of farnesylation. The note with it: with Saccharomyces cerevisiae ydj1Δ (yWS304); selective temperature 37 °C; reference temperature 25 °C.
Turning to IYQ, the enrichment factor was 1.75.
Regarding IYS, the enrichment factor was 2.12.
The figure for IYY is 2; for IYV it is 2.39; for IYT it is 2.06.
In the case of IYR it was 0.1; in that of IYW, 0.853.
With PYT, the enrichment factor worked out at 1.74.
The figure for PYS is 1.7; for PYR it is 0.123.
The figure for PYV is 1.64.
For the variant PYQ, the enrichment factor is 1.42.
The figure for PYW is 0.745.
The figure for PYY is 1.44; for HYY it is 1.37.
On to HYR, for which the enrichment factor stood at 0.268.
In the case of HYQ it was 3.07; in that of HYW, 0.699; in that of HYV, 2.83.
The figure for HYT is 1.63; for HYS it is 3.23.
In the case of QYR it was 0.122; in that of QYQ, 2.81; in that of QYS, 2.54.
With QYY, the enrichment factor was found to be 1.38.
With QYV, the enrichment factor was 2.6.
The figure for QYT is 2.23.
In the case of QYW it was 1.21.
For the variant RYV, the enrichment factor worked out at 1.55.
The figure for RYS is 2.09; for RYY it is 1.32; for RYW it is 0.656.
In the case of RYT it was 1.58; in that of RYQ, 1.49; in that of RYR, 0.122.
In the case of TYV, the enrichment factor was 2.43.
With TYW, the enrichment factor worked out at 0.906.
In the case of TYS it was 2.03; in that of TYT, 2.77; in that of TYQ, 2.66.
In the case of TYR it was 0.144; in that of TYY, 2.04.
The figure for AYV is 2.23; for AYW it is 1.43.
For AYS, the enrichment factor stood at 2.72.
In the case of AYQ, the enrichment factor came to 2.13.
The figure for AYY is 2.08; for AYR it is 0.205.
The figure for AYT is 1.84.
The figure for KYS is 1.97; for KYT it is 1.46.
KYV: the enrichment factor came to 1.28.
In the case of KYR it was 0.0965.
The figure for KYY is 0.631; for KYW it is 0.543.
The figure for KYQ is 3.19; for WYV it is 1.88.
As to WYY, the enrichment factor is 0.936.
In the case of WYT it was 1.68.
The figure for WYS is 1.25; for WYQ it is 1.53.
In the case of WYR it was 0.228; in that of WYW, 0.883.
Consider CYV, for which the enrichment factor is 0.649.
In the case of CYW it was 0.313.
In the case of CYQ it was 1.37; in that of CYR, 0.186.
The figure for CYY is 0.27; for CYT it is 1.31; for CYS it is 2.5.
Take NYW: the enrichment factor was 0.473.
The figure for NYS is 2.47.
Take NYR: the enrichment factor was determined as 0.209.
In the case of NYQ it was 2.08; in that of NYT, 1.6; in that of NYY, 1.18.
The figure for NYV is 1.71; for LYS it is 2.54; for LYR it is 0.14.
Consider LYY, for which the enrichment factor was 0.924.
As to LYV, the enrichment factor was determined as 2.36.
LYW: the enrichment factor amounted to 0.841.
With LYQ, the enrichment factor was found to be 1.83.
In the case of LYT it was 2.08; in that of FYS, 1.94; in that of FYW, 1.3.
FYT: the enrichment factor was determined as 2.02.
The figure for FYY is 1.55; for FYV it is 1.38; for FYQ it is 2.46.
Consider FYR, for which the enrichment factor was found to be 0.12.
The figure for GYR is 0.169.
The figure for GYT is 1.39; for GYQ it is 1.28; for GYY it is 2.05.
In the case of GYW, the enrichment factor came out at 0.849.
In the case of GYS it was 1.64; in that of GYV, 1.4.
The figure for EYS is 1.67; for EYT it is 1.76; for EYR it is 0.163.
The figure for EYY is 1.21; for EYV it is 1.39.
In the case of EYQ, the enrichment factor was determined as 2.08.
In the case of EYW, the enrichment factor was 1.29.
The figure for DYY is 0.91.
In the case of DYT it was 0.386.
The figure for DYQ is 1.39; for DYW it is 0.391.
DYR: the enrichment factor was 0.114.
On to DYV, for which the enrichment factor was 0.543.
Turning to DYS, the enrichment factor is 0.578.
The figure for SYQ is 2.32; for SYW it is 0.907; for SYS it is 2.83.
The figure for SYV is 2.09; for SYT it is 1.97.
For the variant SYY, the enrichment factor worked out at 2.07.
In the case of SYR it was 0.0852; in that of VYR, 0.158.
In the case of VYY, the enrichment factor is 2.52.
The figure for VYT is 2.2; for VYV it is 0.827.
VYS: the enrichment factor was determined as 0.939.
For the variant VYQ, the enrichment factor was determined as 2.11.
The figure for VYW is 1.28.
Consider MYV, for which the enrichment factor came out at 1.87.
As for MYQ, the enrichment factor was found to be 1.8.
For the variant MYY, the enrichment factor came out at 1.11.
In the case of MYT, the enrichment factor is 1.91.
In the case of MYR it was 0.155; in that of MYS, 2.57; in that of MYW, 1.13.
The figure for YYR is 0.0869; for YYY it is 1.53.
The figure for YYW is 1.27; for YYQ it is 2.37; for YYP it is 0.222.
For the variant YYS, the enrichment factor worked out at 2.2.
The figure for YYT is 1.71; for YYV it is 1.75.

Values taken from the supplement of paper PMC10320760.
